Results as given in publication PMC12977500, “Mechanistic insights into SteAB regulation of cell wall hydrolase RipA in Mycobacterium tuberculosis” (mBio, 2026).

Biological target: the molecule itself
Assay: crystal structure; apo MtSteB△TM, 11.4 mg/mL; 0.1 M CdCl2, 0.1 M Na acetate pH 4.6, 30% PEG 400; 18°C; 2 Å resolution

B1: MtSteB△TM (soluble M. tuberculosis SteB devoid of its TM domain, residues 38–314) (domain or fragment)
chain: RSEKRDLYTQIDRLTDQRDALREKLSAADNFDIQVGSRIVHDALVGKSVVIFRTPDAHDDDIAAVSKIVGQAGGAVTATVSLTQEFVEANSAEKLRSVVNSSILPAGSQLSTKLVDQGSQAGDLLGIALLSNADPAAPTVEQAQRDTVLAALRETGFITYQPRDRIGTANATVVVTGGALSTDAGNQGVSVARFAAALAPRGSGTLLAGRDGSANRPAAVAVTRADADMAAEISTVDDIDAEPGRITVILALHDLINGGHVGHYGTGHGAMSVTVSQ
notes: Homodimer in both crystal structures; also called MctB; Rv1698; not shown: His6, N-terminal, cleaved; SUMO, N-terminal, cleaved
stoichiometry N: 2
